PubChem BioAssay AID686979 (National Center for Advancing Translational Sciences (NCATS), 2013)
Out of some 420,000 compounds screened, about 50,000 (12%) were called active. Inconclusive means that the source gave no clear call. Such entries were picked first, then a sample of the others. The call rests on the fitted dose curve; in most records, active means well fitted inhibition curve with a large enough effect; inconclusive means small, poorly fitted or top-dose-only effect; inactive means flat fitted curve, though single readings scatter. No potency is given beside an inconclusive call; the fits are too rough.

Assay: qHTS for Inhibitors of human tyrosyl-DNA phosphodiesterase 1 (TDP1): qHTS in cells in presence of CPT; further: nearly all actives have a fitted effect of over 55% in size
Settings: chicken DT40 Tdp1-/-;hTDP1 cells + 20 nM CPT, ATP luminescence, 48 h; activity change, negative = growth inhibition: at 46.2 µM (top of the series) unless noted
Summary of the method: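 Cell growth measured by CellTiter-Glo luminescence after a minimum 48 h, 37 C compound exposure with 20 nM CPT in Tdp1-knockout DT40 cells stably expressing hTDP1, seeded 400/well; qHTS titration format.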
On the % scale 0 is the no-effect control and ±100 the full control effect; potency means the concentration at half of the fitted maximal effect; tags describe the fitted curve by direction and shape.

Which Potency does the source give for COCCCn1c(C(=O)Nc2ccc3c(c2)OCO3)cc2c(=O)n3cccc(C)c3nc21 here?
Its Potency is inconclusive [inhibitor, single point].

Which Potency does the source give for COc1cccc(N2CCN(C(=O)c3cccc(-n4c(C)nc5cccnc54)c3)CC2)c1 here?
The Potency was active: 11.6 µM.

Which Potency does the source give for Cc1ccccc1OC(C)C(=O)NCCNC(=O)C(C)Oc1ccccc1C (stereo unspecified) here?
Its Potency is inconclusive [inhibitor, single point].

Which Potency does the source give for CC1CCN(C(=O)c2[nH]cnc2C(=O)Nc2cccc(Cl)c2)CC1 here?
The Potency was inconclusive [inhibitor, single point].

Which “activity change, negative = growth inhibition” value does the source give for COc1ccc(OC)c(Nc2ncnc3c2cnn3-c2ccccc2)c1 here?
Its value is inactive: -26.4%.

Which Potency does the source give for Cc1ccccc1NC1=C(Cl)C(=O)N(C2CCCCC2)C1=O here?
The Potency was inconclusive [inhibitor, single point].

With C#CCOCCOCCOCCNc1nc(N2CCN(C(=O)[C@H](CCC(=O)O)n3cc(C(N)[C@H](C)CC)nn3)CC2)nc(N2CCN(C(=O)[C@H](Cc3ccc(O)cc3)n3cc(C(N)[C@H](C)CC)nn3)CC2)n1 (stereo partly specified) as the molecule, how does the Potency read?
The Potency was inconclusive [inhibitor, partial curve].

For Cc1cc(N2CCCCC2)nc(-c2ccc(Br)cc2)n1, which Potency is on record?
Its Potency is inconclusive [inhibitor, single point].

With COc1ccc(Br)c(C(=O)Nc2cc3c(cc2N2CCOCC2)n(C)c(=O)n3C)c1 as the molecule, how does the Potency read?
The Potency was active: 23.1 µM.

Which Potency does the source give for O=C(O)c1cccc2cccc(-c3c4ccc(=O)c(O)c-4oc4c(O)c(O)ccc34)c12 here?
Its Potency is active: 10.3 µM.

For CCOc1ccc(NC(=O)c2c(NCc3cccnc3)sc3c2CCCC3)cc1, which Potency is on record?
Its Potency is inconclusive [inhibitor, single point].

Which Potency does the source give for COc1ccc(CNC(=O)CC[C@H]2O[C@@H](n3cnc4c(NC(=O)c5ccccc5)ncnc43)[C@H](O)[C@@H]2O)cc1 here?
Its Potency is inconclusive [inhibitor, partial curve].

With CC1(C)C(=O)OC(c2ccc([N+](=O)[O-])cc2)C(C)(C)C1=O (stereo unspecified) as the molecule, how does the Potency read?
The Potency was inconclusive [inhibitor, single point].

Which Potency does the source give for O=C(NCCNC(=O)c1ccc(-c2cccc(Cl)c2)o1)c1cnccn1 here?
The Potency was inconclusive [inhibitor, single point].

Which Potency does the source give for CCCNC(=O)NC(=O)COc1c(F)c(F)cc(F)c1F here?
Its Potency is inconclusive [inhibitor, single point].

For CCOC(=O)[C@]12CCCC=C1N(Cc1ccc3c(c1)OCO3)C(=O)[C@H](CC(=O)NCc1cccc3ccccc13)C2, which Potency is on record?
The Potency was inconclusive [inhibitor, single point].
